# Reference: PubChem BioAssay (NCATS)
# Inconclusive means that the source gave no clear call. Such entries were picked first, then a sample of the others. For part of these data: Potencies of inconclusive entries are left out as doubtful fits. Calls of active or inactive are those of the source. Unless noted, calls come from the whole dose curve; as a rule, active = well fitted curve in the direction sought with a large enough effect; inconclusive = small, poorly fitted or top-dose-only effect, or another doubt; inactive = no such curve, though single readings can be large; an effect the other way counts as inactive or inconclusive.
# Key:
# [1] = AP1 Signaling Pathway (AID 357; active = well fitted curve in either direction with a large enough effect, not every such curve was filed as active; inconclusive = small, poorly fitted or top-dose-only effect, or another doubt;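 note: ME-180 reporter cells stimulated with EGF at its EC50 level; top concentration of the series differs between compounds; % is set by controls: 0 for no effect and ±100 for the full control effect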); conditions: ME-180 (cervical carcinoma) AP-1-bla reporter, EGF-induced, beta-lactamase ratio, 5 h; at 7.69 µM (top of the series)
# Method in brief: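 First, ME-180 AP-1-bla cells were cultured overnight at 37 °C in low-serum Opti-MEM. Next, titrated compounds with EC50 EGF were incubated 5 hours. Finally, CCF4 was added for 2.5 hours and the 460/530 nm ratio recorded.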
# [2] = NFAT Signaling Pathway (AID 444; active = well fitted curve in either direction with a large enough effect, not every such curve was filed as active; inconclusive = small, poorly fitted or top-dose-only effect, or another doubt;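 note: carbachol stimulus at about its EC50 of 1 µM final; % is set by controls: 0 for no effect and ±100 for the full control effect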); conditions: Jurkat NFAT-bla M1, carbachol, beta-lactamase ratio, 5 h; at 7.69 µM (top of the series)
# Method in brief: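 Read-out: CCF4 FRET ratio (460 nm/530 nm) after 1 h RT dye loading, used for %activity and AC50 from titration series. Cells: Jurkat NFAT-β-lactamase/M1 line, treated with compound plus 1 uM carbachol for 5 h, 37 °C.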
# [3] = Cell Viability - BJ (AID 421; calls by dose curve;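 note: potency is the fitted concentration of half-maximal effect; cells exposed to compound for 40 hours at 37 °C before readout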); conditions: BJ fibroblast viability, qHTS
# Method in brief: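 Cytotoxicity in human BJ foreskin fibroblasts is scored as loss of cellular ATP after a 40-hour exposure, measured by luciferase luminescence. Controls are DMSO and 100 uM tamoxifen.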
# [4] = Cell Viability - Jurkat (AID 426;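 active = dose-dependent loss of cell ATP signal giving a full or clear fitted curve, ranked by lower potency value; inconclusive = weak partial curve or response only at the top dose; inactive = no loss of viability signal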; note: potency is the fitted concentration of half-maximal effect); conditions: qHTS
# Method in brief: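 Jurkat (clone E6-1, human T-cell leukemia) cells, 5000/well in complete medium, were exposed to compound for 40 hr at 37 °C. Viability was read as intracellular ATP by CellTiter-Glo luminescence; AC50 came from Hill fits of concentration-response data.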
# [5] = Cell Viability - Hek293 (AID 427;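 active = compounds whose dose-response curve shows a full or clear partial loss of cell viability, called from curve shape rather than a numeric limit; inconclusive = weak partial curves or an effect only at the top dose; inactive = no dose-dependent loss of viability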;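 note: potency is the fitted concentration of half-maximal effect; cells exposed to compound for 40 hours at 37 °C before reading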); conditions: qHTS
# Method in brief: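 qHTS, human embryonic kidney (adenovirus-transformed) cells; 40 hr cpd, 37 °C; CellTiter-Glo ATP luminescence. Norm: DMSO = 0, 100 uM tamoxifen = 100% inhibition. Hill-fit AC50.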
# [6] = Cell Viability - MRC5 (AID 434; calls by dose curve;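 note: potency is the fitted concentration of half-maximal effect; potency reflects cytotoxicity seen as loss of intracellular ATP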); conditions: MRC5 lung fibroblast viability, qHTS
# Method in brief: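 qHTS cytotoxicity in human lung fibroblast MRC5 cells; 40 hr treatment, 37 °C; cellular ATP by luciferase luminescence; DMSO = 0%, 100 uM tamoxifen = 100% inhibition; Hill-fit AC50.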
# [7] = Cell Viability - SK-N-SH (AID 435; calls by dose curve;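 note: potency is the fitted concentration of half-maximal effect; compound exposure lasted 40 h at 37 °C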); conditions: SK-N-SH neuroblastoma cell viability qHTS
# Method in brief: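 Luminescent ATP signal served as the viability read-out after 40 hours of compound treatment of human neuroblastoma SK-N-SH cells. Concentration-response data, scaled between DMSO and 100 uM tamoxifen, gave AC50 values by standard Hill modeling.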
# [8] = Cell Viability - H-4-II-E (AID 543); conditions: H-4-II-E rat hepatoma viability; series mostly up to 92.2 µM; note: nearly all actives have a fitted effect of over 35% in size; note: potency is the fitted concentration of half-maximal effect
# Method in brief: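 Rat hepatoma H-4-II-E cells (1500/well) were plated, incubated 5 hr at 37 °C, then exposed to compounds for 40 hr at 37 °C. Cellular ATP was read by CellTiter-Glo luminescence; AC50 came from Hill-equation fits of concentration-response data.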
# [9] = Cell Viability - SH-SY5Y (AID 544); conditions: SH-SY5Y neuroblastoma cell viability; at 92.2 µM (top of the series); note: nearly all actives have a fitted effect of over 55% in size
# Method in brief: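 Human neuroblastoma SH-SY5Y cells (1500/well) in complete medium were exposed to compounds for 40 hr at 37 °C; intracellular ATP was then quantified by CellTiter-Glo luminescence after 20 min at room temperature. AC50 came from Hill-equation concentration-response fits.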
# [10] = Cell Viability - NIH 3T3 (AID 541); conditions: NIH 3T3 cell viability, qHTS; at 92.2 µM (top of the series);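 note: plate controls were DMSO alone for no effect and tamoxifen positive control for full effect; nearly all actives have a fitted effect of over 25% in size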
# Method in brief: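 NIH 3T3 mouse embryo fibroblasts (1000 cells/well) were plated in complete medium and treated with compound for 40 hr at 37 °C. Viability was read as intracellular ATP by CellTiter-Glo luminescence; AC50 values came from Hill-equation fits of concentration-response data.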
# [11] = Cell Viability - HUV-EC-C (AID 542); conditions: HUV-EC-C endothelial cell viability, qHTS; note: potency is the fitted concentration of half-maximal effect; nearly all actives have a fitted effect of over 35% in size
# Method in brief: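 HUV-EC-C normal human vascular endothelial cells, 1000 cells/well, pre-incubated 5 hr at 37 °C, then exposed to compounds for 40 hr at 37 °C in complete medium. Viability measured as intracellular ATP by CellTiter-Glo luminescence; AC50 from Hill fits.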
# [12] = Cell Viability - Renal Proximal Tubule (AID 545); conditions: renal proximal tubule cells viability, primary cells of rat origin; at 91.7 µM (top of the series); note: nearly all actives have a fitted effect of over 40% in size
# Method in brief: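 Luminescent ATP signal (CellTiter-Glo) served as the viability read-out after 40 hr compound exposure of freshly isolated rat proximal tubule cells at 37 °C. Concentration-dependent ATP loss was fitted with the Hill equation to give AC50.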
# [13] = Cell Viability - Mesenchymal (AID 546); conditions: mesenchymal cells viability, qHTS; at 91.7 µM (top of the series);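 note: cells exposed to compound for 40 hours before reading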
# Method in brief: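 AC50 values reflect the drop in intracellular ATP in a human kidney mesenchymal line derived from normal glomeruli. Treatment lasts 40 hr at 37 °C in complete medium, and the signal comes from CellTiter-Glo luminescence.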
# [14] = Cellular Toxicity (caspase-3) HepG2 (AID 654); conditions: HepG2 caspase-3 activation, luminescence; note: potency is the fitted concentration of half-maximal effect
# Method in brief: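 HepG2 cells (1500/well) in complete medium were treated with compounds for 16 hr at 37 °C. Caspase-3/7 activity was then read as luminescence from peptide-aminoluciferin cleavage. AC50 came from Hill fits, normalized to DMSO and 100 uM tamoxifen.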
# [15] = Cellular Toxicity (caspase-3) Jurkat (AID 655); conditions: Jurkat caspase-3 activation, luminescence; caspase-3 activation: at 92.2 µM (top of the series), DMSO = 0%, tamoxifen = 100%;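 note: cells exposed to compound for 16 h at 37 °C before reading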; note: potency is the fitted concentration of half-maximal effect
# Method in brief: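 5000 Jurkat cells/well; compound 16 hr, 37 °C; Caspase-Glo 3/7 added, 20 min RT; luminescence read. Norm: DMSO = 0%, tamoxifen 100 uM = 100%. AC50, Hill model.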
# [16] = biological target: Glucocorticoid receptor (Homo sapiens) (UniProt P04150); experiment: GR-GFP Redistribution (AID 450;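 active = compounds whose dose series gives a full or clear partial fitted curve of increased nuclear translocation; inconclusive = weak partial curve or effect only at the top dose; inactive = no dose-dependent translocation response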; note: potency is the fitted concentration of half-maximal effect); conditions: U2OS GR-GFP nuclear translocation, laser cytometry, 2 h
# Chain of UniProt P04150 (P04150 whole entry, looked up): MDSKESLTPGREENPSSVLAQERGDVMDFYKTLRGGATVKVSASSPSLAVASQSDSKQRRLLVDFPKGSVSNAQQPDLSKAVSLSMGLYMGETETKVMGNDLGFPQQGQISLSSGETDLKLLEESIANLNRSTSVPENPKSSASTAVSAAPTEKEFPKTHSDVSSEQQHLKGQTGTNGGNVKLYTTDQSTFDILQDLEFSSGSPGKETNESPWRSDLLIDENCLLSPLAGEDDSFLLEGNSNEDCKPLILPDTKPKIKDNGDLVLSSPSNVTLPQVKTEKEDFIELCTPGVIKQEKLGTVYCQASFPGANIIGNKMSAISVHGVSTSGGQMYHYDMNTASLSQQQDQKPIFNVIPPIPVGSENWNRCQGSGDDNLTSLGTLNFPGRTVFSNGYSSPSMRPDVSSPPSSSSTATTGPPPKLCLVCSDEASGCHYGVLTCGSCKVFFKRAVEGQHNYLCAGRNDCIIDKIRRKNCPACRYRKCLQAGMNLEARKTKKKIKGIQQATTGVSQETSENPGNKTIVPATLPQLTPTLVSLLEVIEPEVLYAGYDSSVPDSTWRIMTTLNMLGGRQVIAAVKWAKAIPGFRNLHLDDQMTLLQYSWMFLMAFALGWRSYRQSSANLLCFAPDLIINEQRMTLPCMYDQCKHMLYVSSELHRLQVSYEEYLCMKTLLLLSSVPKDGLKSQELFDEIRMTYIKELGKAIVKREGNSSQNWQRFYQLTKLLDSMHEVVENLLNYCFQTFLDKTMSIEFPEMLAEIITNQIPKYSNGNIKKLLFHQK
# [17] = Cell Viability - N2a (AID 540); conditions: N2a mouse neuroblastoma cell viability; at 92.2 µM (top of the series);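 note: plate controls were DMSO alone for no effect and tamoxifen control for full effect; nearly all actives have a fitted effect of over 45% in size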
# Method in brief: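 Mouse neuroblastoma N2a cells (1500/well) were preincubated 5 hr at 37 °C, then exposed to compounds for 40 hr at 37 °C in complete medium. Viability was read as intracellular ATP by CellTiter-Glo luminescence; AC50 from Hill fits.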
# Tags give direction and shape of the fitted curve.
smiles,measurement,setting,value
NC(=O)c1nnn(Cc2cc(Cl)c(C(=O)c3ccc(Cl)cc3)c(Cl)c2)c1N,"activity change, negative = inhibition",[1],inactive: -14.6%
same,"activity change, negative = inhibition",[2],inactive: -20.4%
Clc1ccc(C(c2ccccc2Cl)C(Cl)Cl)cc1 (stereo not given),Potency,[3],inconclusive [single point]
same,Potency,[4],inconclusive [partial curve]
same,Potency,[5],inconclusive [single point]
same,Potency,[6],inconclusive [partial curve]
same,Potency,[7],inconclusive [single point]
same,Potency,[8],"inconclusive [falling, partial curve]"
same,"viability change, negative = cytotoxic",[9],inconclusive: -74%
CC(COc1ccccc1)N(CCCl)Cc1ccccc1 (stereo not given),Potency,[4],inconclusive [partial curve]
same,Potency,[5],inconclusive [single point]
same,Potency,[7],inconclusive [partial curve]
same,"activity change, negative = cytotoxicity",[10],inconclusive: -38%
same,Potency,[11],"inconclusive [falling, partial curve]"
same,Potency,[8],"inconclusive [falling, partial curve]"
same,"activity change, negative = cytotoxicity",[12],inconclusive: -63.5%
same,"activity change, negative = cytotoxicity",[13],inconclusive: -93.2%
same,Potency,[14],"inconclusive [rising, single point]"
same,caspase-3 activation,[15],inconclusive: 54.3%
CCCc1cc(=O)[nH]c(=S)[nH]1,"viability change, negative = cytotoxic",[9],inconclusive: -81.8%
CCOc1cc(CC(=O)N[C@@H](CC(C)C)c2ccccc2N2CCCCC2)ccc1C(=O)O,Potency,[16],active: 2.1 µM
CCc1nc(N)nc(N)c1-c1ccc(Cl)cc1,"activity change, negative = cytotoxicity",[17],inconclusive: -58.5%
same,"activity change, negative = cytotoxicity",[10],inconclusive: -79.6%
same,Potency,[8],active: 0.158 µM
same,Potency,[15],active: 31.6 µM
O=C(O)c1cc(=O)[nH]c(=O)[nH]1,"activity change, negative = cytotoxicity",[17],inactive: 7.18%
O=c1[nH]cnc2c1ncn2[C@H]1CC[C@@H](CO)O1,"activity change, negative = cytotoxicity",[10],inactive: 6.95%
NS(=O)(=O)c1cc2c(cc1Cl)NCNS2(=O)=O,Potency,[8],inactive
O=C(N[C@H](CO)[C@H](O)c1ccc([N+](=O)[O-])cc1)C(Cl)Cl,"activity change, negative = cytotoxicity",[12],inactive: -9.2%
CCn1cc(C(=O)O)c(=O)c2ccc(C)nc21,Potency,[15],inactive
